Source: the RNAGym collection of RNA variant scans (doi:10.7554/elife.90254)
The source gives no read counts; variants with many changes may rest on few reads.

B1: LINE1-mini (parent)
chain: GGCAGAGCUCAACACAGCGUGGCAAAGUGGCUGUGGCUAGACUGCC

Variants of: B1
Test: self-cleavage, relative activity (ratio to wild type); higher = more cleavage; in vitro, sequencing; the parent is a self-cleaving ribozyme

| Variant | self-cleavage |
| --- | --- |
| G30A G40C C42A | 0.19 |
| G27C G29A U32A | 0.01 |
| G33A G35A C37G | 0.11 |
| U28G G30U U32G | 0.16 |
| G30A G44C C46G | 0.09 |
| C31A G35U C37A | 0 |
| G30A C31U A39G | 0.03 |
| U28A G29C G33U | 0.03 |
| U34C C42A G44C | 0.11 |
| U32A A39C C42A C46G | 0.02 |
| U34A G35C U38G | 0 |
| G27C U28A A39G | 0.04 |
| G33A G36C C42U | 0.02 |
| G29C U32G A41C | 0.07 |
| G33U U38C A41G | 0.02 |
| U28C G33C C46U | 0.09 |
| U34C A41G C46U | 0.07 |
| G29A G30A G35U A41U | 0.05 |
| C31A U34C G40U | 0.08 |
| G29U U34C C45U | 0.02 |
| G30C U32G C37U A41C | 0.02 |
| G29U G40U U43A | 0.08 |
| G29U G35A C46G | 0.04 |
| G29C C31U C37U | 0.11 |

| Variant | self-cleavage |
| --- | --- |
| G27C G29C G40U | 0.03 |
| G30C G35C G44A | 0.03 |
| G33A A41U C42A | 0.04 |
| U28G G29U G40A | 0.69 |
| U34C G36C C46A | 0.02 |
| U28A G29A U32C G40A | 0.11 |
| G29C U32C G40A G44C | 0.05 |
| G29C U34C C37A U38A A39C | 0 |
| U28C C31U U38A | 0.28 |
| U28G G30A U34G C46U | 0.21 |
| G27C G33U C46G | 0.19 |
| G29A U32C U43A | 0.03 |
| G29U A41G G44U C45G | 0 |
| G30C C42U U43G C46A | 0.41 |
| G29A U32C C37G | 0.06 |
| U28C U32A C45U | 0.02 |
| G33C G40U U43G C46G | 0 |
| G29A U32G C37G | 0.03 |
| G33U G40U C42A | 0.05 |
| G29U G36C A41G C46G | 0.04 |
| G30U G36A A39G C42G | 0.04 |
| G30C G33C U43A | 0 |
| G29U G33C U38C C45U C46A | 0.01 |
| C31U U34A A39U | 0.03 |

| Variant | self-cleavage |
| --- | --- |
| G29U A39U G40A | 0.05 |
| G29A G40A C45A | 0.09 |
| G30U C31A U34G | 0.06 |
| G29U G30U A39U | 2.54 |
| G27C U34G C42G | 0.03 |
| G33U G40A C42U C46A | 0.06 |
| U34A G40U C46G | 0.01 |
| U28G U32C A39C C42G | 0.04 |
| G29U U34A G36A A41G | 0.01 |
| G29U U34G C42A | 0.04 |
| C31G U32A U34A C46A | 0.02 |
| G33A G36U C37A | 0.02 |
| G33C U34A G35U C46A | 0.07 |
| G30A C42A C46A | 0.11 |
| U28C G29U U32G | 0.01 |
| U28C C31G G44U | 0.01 |
| U28C A39C C42A | 0.02 |
| G29A G40C A41U | 0.02 |
| C31A U34C G36A G44A | 0.06 |
| C31U G33A U34G U38G G40C | 0.02 |
| C31A G35U C42G U43C | 0.03 |
| G29A G40A C46A | 0.1 |
| C31G U32A C37U | 0.03 |
| U28C C31G U34G | 0 |

| Variant | self-cleavage |
| --- | --- |
| G33C G35A A41U C45A | 0 |
| C31A U34C G36U C37G G44U | 0.13 |
| G30U U32A U43C | 0.02 |
| U32A G33C A39C C45U | 0.02 |
| U34A G36C G40C C42A | 0.03 |
| U32C G40C C46A | 0.01 |
| C31U U34G C42U | 0.03 |
| G29U G35A U43G | 0 |
| G27U G30A C46G | 0.25 |
| G30C C31A U38A A41U | 0.07 |
| G27C G36A C46A | 0.16 |
| C31U U38G G44A | 0.11 |
| G30C C31A U43A | 0.06 |
| U28A A39U U43A | 0.14 |
| G30U U32C G36C U38A | 0.29 |
| U28A C31U A39U | 0.08 |
| C31A U34C C46G | 0.03 |
| U34C C37A G40A | 0.02 |
| C31A C37U A41C C42A | 0.02 |
| U32C G36U A41C | 0.15 |
| U28C G35U A39C | 0.12 |
| G29A C42G C46G | 0.03 |
| C31U G33C G40C G44U | 0.04 |
| C31G G33C C46U | 0.09 |

| Variant | self-cleavage |
| --- | --- |
| G30C G36C C37A C42A U43G | 0.04 |
| C31U C37A C42U | 0.11 |
| G33U C37G U43A | 0.03 |
| G30C U32A A39U C42U C45G | 0.02 |
| G27C C31G G35U A39G | 0.02 |
| G29A C31A G36U U38C | 0.06 |
| G27U U28A G35C C46U | 0.23 |
| U34G C37A A41C | 0.02 |
| U28A G35U C46A | 0.07 |
| G27C C31U C37U | 0.02 |
| U32G A39U C45G | 0.04 |
| U32A C42A U43G | 0.02 |
| G29C C31G G40U | 0.06 |
| G30U G33U C37G | 0.02 |
| G29U U34C C37G | 0.1 |
| U32G C37U A41U | 0.05 |
| G30C U34G C42A | 0.02 |
| G33U C37A C42A C46U | 0.36 |
| G30U A39G G40A | 0.05 |
| G30C G33U C42A | 0.05 |
| G29U G30A C31G G36U | 0.15 |
| G27C G33A U34A | 0.04 |
| U34A G36U G44C | 0.04 |
| G27C U28A U34A G44A | 0.13 |

| Variant | self-cleavage |
| --- | --- |
| C31G G33C U38C | 0.03 |
| G29U C37A C42A | 0.1 |
| G30C G36A C46A | 0.04 |
| G30U G33U G40A | 0.05 |
| G27C A39G C42U | 0.03 |
| G27U G36A C42G | 0.01 |
| U28A U38A A41U | 0.08 |
| G27C G36U U43G G44U | 0.01 |
| G29C C31A G36U A41G | 0.03 |
| G29A U38C C46U | 0.24 |
| G30U C31U U34C | 0.1 |
| U28A U32A C37G A41G U43G | 0 |
| U32G U34C A41C G44A | 0.1 |
| G27U G29C C42A | 0.04 |
| U34G A39U G40C | 0.06 |
| U28G U32C C45G C46U | 0.05 |
| G27C U38A C45A | 0.17 |
| U28C G29U G40A A41C | 0.04 |
| G29A G36A G40U | 0.48 |
| U28G A39C C46A | 0.08 |
| G29U C37A G44A | 0.04 |
| C31U C37U U43A C45A | 0.07 |
| U28G A41U C42U | 0.01 |
| U28C A39G G40C C42A C45A | 0.07 |

| Variant | self-cleavage |
| --- | --- |
| G29U C31U C45U | 0.06 |
| G29U G30A C46G | 1.43 |
| C31A U32A U34A G44C C46G | 0.02 |
| G30C A39C G44A | 0.09 |
| G29U G30C C42G | 0.05 |
| G29C C37G G40A | 0.02 |
| C31A A41G C42A C45U | 0.02 |
| G30U U34C U43C | 0.02 |
| U28C A41C U43G | 0.07 |
| C31G G33U C37A C46A | 0.03 |
| G30A C31G G35U | 0.01 |
| G29C U32A G40U | 0.02 |
| U28A G29U C37U | 0.01 |
| U34A G36C U38A C46U | 0 |
| G29C G33U C42A | 0.02 |
| G30U U38G U43A | 0.02 |
| G29U G30A G35A | 0.2 |
| U34G A39G G40U | 0.17 |
| U28A G30A C46G | 0.2 |
| G33U U38A G40U C42A | 0.03 |
| G29U C31G C37U G40C | 0.02 |
| U28A G30U U34A | 0.29 |
| U34G C45U C46A | 0.06 |
